Measurements from PubChem BioAssay AID1346428 (National Center for Advancing Translational Sciences (NCATS), 2018).
The campaign covered roughly 48,000 compounds. About 1,200 (2.5%) were called active. Inconclusive results (about 2%) are left out.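 How the source made its calls: active means activation of at least 60% and not above a set upper limit (about 1 call in 100 departs from these limits); inconclusive means activation of 40% to 60%, or above that upper limit; inactive means activation under 40%.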 This is one part of the list.

biological target: Probable G-protein coupled receptor 32 (Homo sapiens) (UniProt O75388); experiment: qHTS for Agonists of Human Resolvin D1 Receptor DRV1; details: CHO-K1 GPR32 beta-arrestin PathHunter luminescence, 90 min; at 76.9 µM; hits give high values; zero percent set by DMSO-only wells; further: 0% is about no effect
How it was run: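 Luminescent readout of beta-Gal complementation quantifies ligand-induced beta-arrestin association with GPR32 in CHO-K1 cells; 90 min compound incubation at 37 °C, detection 1 h at room temperature.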

Sequence of UniProt O75388 (O75388 whole entry, looked up): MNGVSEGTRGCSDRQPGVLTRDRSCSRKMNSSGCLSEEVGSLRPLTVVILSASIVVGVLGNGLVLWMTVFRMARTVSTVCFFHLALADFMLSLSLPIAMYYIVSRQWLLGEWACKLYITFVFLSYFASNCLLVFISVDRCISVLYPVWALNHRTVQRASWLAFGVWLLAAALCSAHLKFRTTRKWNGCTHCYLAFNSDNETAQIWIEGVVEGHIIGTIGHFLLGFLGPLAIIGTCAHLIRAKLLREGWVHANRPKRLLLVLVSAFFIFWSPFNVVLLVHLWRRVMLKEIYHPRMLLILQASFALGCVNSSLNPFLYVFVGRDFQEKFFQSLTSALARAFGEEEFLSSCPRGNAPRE

Compound	activation
COc1cccc(CN(C(=O)c2oc3ccc(Br)cc3c2C)C2CCS(=O)(=O)C2)c1 (centres undefined)	inactive: -23.8%
CCOC(=O)c1ccccc1NC(=O)c1c(-c2ccccc2)noc1C	inactive: -26.7%
CCC(=O)N1CCc2cc(Br)cc(S(=O)(=O)NCc3cccc(OC)c3)c21	inactive: -3.24%
Cc1coc2cc3oc(=O)c(CCC(=O)N4CCCCC4)c(C)c3cc12	active: 107%
COC(=O)CNC(c1ccccc1)c1cc(Br)ccc1NC(=O)c1ccc(Cl)cc1 (centres undefined)	inactive: -6%
Cc1nc2ccn(Cc3ccccc3)c(=O)c2cc1C(=O)Nc1ccc(F)cc1Cl	inactive: -1.75%
Cc1ccccc1-c1ccnc2c(-c3ccc(F)cc3)c(C)nn12	inactive: 15.8%
Cc1ccc(-c2cc(N)n(Cc3cccc(Cl)c3)n2)cc1	inactive: 16.3%
COc1cccc(NC(=O)Cn2c(=O)n(-c3ccccc3)c(=O)c3c4c(sc32)CCCC4)c1	inactive: 8.86%
CCN(CC)C(=O)CSc1nc(-c2ccccc2)cc(-c2ccc(OC)cc2)c1C#N	inactive: 1.57%
Cc1ccc(C)c(NC(=O)CCc2nc3cccnc3n2Cc2cccs2)c1	inactive: -4.18%
Cc1cc2nc(NC(=O)c3ccc(S(=O)(=O)N4CCOCC4)cc3)sc2cc1C	inactive: -4.68%
COc1ccccc1-c1noc(-c2ccc(NCc3ccccc3)c([N+](=O)[O-])c2)n1	inactive: -29.9%
COc1ccc(C2Nc3ccccc3-n3c(-c4ccccc4)c4c(=O)n(C)c(=O)n(C)c4c32)cc1 (centres undefined)	inactive: 0.293%
COCCCN1CN=C(NS(=O)(=O)c2ccc(NC(C)=O)cc2)NC1	inactive: -2.86%
COc1ccc(C)cc1NC(=O)CN(C)S(=O)(=O)c1ccc2c(c1)CCCN2C(C)=O	inactive: 1.69%
Cc1ccc(-n2nc3c(N4CCC(C(=O)NCCc5ccccc5)CC4)nnc(C)c3c2C)cc1	inactive: 1.87%
CCOc1ccc(NC(=O)Nc2cccc(C)n2)cc1	inactive: -3.81%
COc1ccc(C)cc1NC(=O)CN1C(=O)CSc2ccc(S(=O)(=O)N3CCCC3)cc21	inactive: -22.2%
CC1=C(c2cccc(Cl)c2)S(=O)(=O)NC1=NCc1ccccc1C	inactive: -10.4%
CCC(=O)N1CCc2cc(S(=O)(=O)N3CCN(c4ccccc4F)CC3)ccc21	inactive: 4.66%

Compound	activation
COc1cc(OC)c(NC(=O)Cn2nc(C)n3cccc3c2=O)cc1Cl	inactive: -6.12%
COc1ccc(N2Cc3cccc(C(=O)Nc4ccc(C)cc4)c3C2=O)cc1	inactive: 10.9%
CCOC(=O)c1sc2ccccc2c1S(=O)(=O)N1CCN(c2ccccc2F)CC1	inactive: -14.3%
O=C(NCCS(=O)(=O)N1CCN(c2ccccc2F)CC1)C1CC(=O)N(c2ccc(F)cc2)C1 (centres undefined)	inactive: -8.37%
Cc1ccc(S(=O)(=O)C(CNS(=O)(=O)c2ccc(F)c(C)c2)c2cccs2)cc1 (centres undefined)	inactive: -25.1%
CCc1ccccc1N(CC)C(=O)Cn1nc(Cc2ccncc2)c2ccccc2c1=O	inactive: -9.44%
Cc1ccc(-n2cnc3cc(C(=O)NCCC4=CCCCC4)ccc32)cc1Cl	inactive: -18.6%
Cc1cccc(NC(=O)COc2ccc3oc4c(c3c2)CCCC4)c1	inactive: 27.3%
Cc1ccc(OCC(=O)Nc2cccc3ccc(C)nc23)c(C)c1	inactive: 5.49%
O=C(CCc1nc(-c2cccs2)no1)Nc1ccc([N+](=O)[O-])cc1	inactive: 8.92%
COc1ccc(CNC(=O)C(=O)NCC(c2cccs2)S(=O)(=O)c2cccs2)cc1 (centres undefined)	inactive: 1.2%
CCOc1ccccc1NC(=O)Cn1nc(N2CCN(c3ccccc3)CC2)ccc1=O	inactive: 22.3%
Cn1c(/C(C#N)=C/c2ccc(C(F)(F)F)cc2)nc2ccccc21	inactive: -13.6%
O=C(NCc1ccccc1Cl)c1ccc(-n2cnc3cccnc32)cc1	inactive: 23.5%
O=C(CCC1N=C2c3ccccc3N=C(SCC(=O)NCCc3ccccc3)N2C1=O)NCc1ccc(F)cc1 (centres undefined)	inactive: -18.3%
CCC(NC(=O)Nc1cccc(C)c1)c1c(-n2cccc2)sc2c1CCN(C)C2 (centres undefined)	inactive: -28.4%
Cc1cn2c(=O)c(S(=O)(=O)NCc3ccc(F)cc3)c(C)nc2s1	inactive: -12.6%
Cc1ccc(CNC(=O)CSCc2nc(-c3cccc(C)c3)oc2C)cc1	inactive: -2.54%
O=C(Cn1c(=O)n(-c2ccccc2Cl)c(=O)c2sc3ccccc3c21)NC1CCCC1	inactive: -9.36%
CCOc1ccc(-c2nnc(SCC(=O)N(CC)c3cccc(C)c3)o2)cc1	inactive: 10.3%
CCOc1ccc(OCC)c(NC(=O)C2CCCN(S(=O)(=O)c3ccc(C)cc3)C2)c1 (centres undefined)	inactive: -9.45%

Compound	activation
CCCN(CCC)C(=O)Cn1c(=O)n(-c2ccc(Cl)c(Cl)c2)c(=O)c2c(C)c(C(=O)N(C)C)sc21	inactive: -8.14%
COc1ccc(-c2c(C)nn3c(N4CCN(c5cc(Cl)ccc5C)CC4)cc(C)nc23)cc1OC	inactive: -58.6%
Cc1ccn2c(Nc3ccc4c(c3)OCCO4)c(-c3ccc(N(C)C)cc3)nc2c1	inactive: -5.25%
O=C(O)CCC(=O)c1ccc(-c2ccccc2)cc1	inactive: 1.72%
COc1ccccc1CNC(=O)CSc1cc(C)[nH]c(=O)n1	inactive: -3.76%
Cc1ccc(NC(=O)CN(c2ccc(C)cc2)S(=O)(=O)c2cccc3nonc23)cc1	inactive: -19.4%
CCOc1ccccc1NC(=O)CCc1c(C)nc2cc(-c3ccccc3)nn2c1C	inactive: 4.44%
Cc1cccc(NC(=O)c2c(NC(=O)c3ccco3)sc3c2CCC(C)C3)c1 (centres undefined)	inactive: 3.78%
CCOCCCn1c(=N)c(C(=O)NCc2ccccc2)cc2c(=O)n3ccccc3nc21	inactive: -5.62%
COc1cccc(NC(=O)Cn2c(=O)n(CCc3cccc(C)c3)c(=O)c3ccccc32)c1	inactive: 33.8%
Cc1c2cnn(-c3ccccc3)c(=O)c2c(C)n1C(C)C(=O)NCc1cccc(Br)c1 (centres undefined)	inactive: -27.2%
CCCN(CCC)C(=O)c1nn(C)c2c1CSc1ccccc1-2	inactive: -18.7%
Cc1ccc(NC(=O)Cn2nc(-c3ccccc3)nc(Cc3ccccc3)c2=O)cc1	inactive: -7.85%
COc1cccc(CNC(=O)c2ccc3c(c2)nc2n3CCC(C)C2)c1 (centres undefined)	inactive: -14.3%
COc1ccc(-n2nc(-c3ccc(C)cc3)c3cnc4cc(F)c(F)cc4c32)cc1	inactive: -3.96%
CCc1nc2nc(C)c(NS(=O)(=O)c3ccc(F)c(C)c3)c(=O)n2[nH]1	inactive: -1.68%
Cc1ccccc1C(=O)Nc1ccccc1-c1nc(-c2ccccc2)no1	inactive: -6.9%
Cc1nc(-c2cccc(F)c2)sc1CCNC(=O)C(=O)Nc1ccc2c(c1)OCCO2	inactive: 22.5%
Cc1ccc(NC(=O)CSc2nc3ccccc3n2CC(=O)N(C)C2CCCCC2)cc1C	inactive: -3.63%
CC(C(=O)Nc1ccccc1)n1nnc2sc3c(c2c1=O)CCCC3 (centres undefined)	inactive: -5.88%
CCOc1ccc2nc(N3CCCC(C(=O)NCCc4ccc(C)cc4)C3)sc2c1 (centres undefined)	inactive: -4.84%

Compound	activation
CCCCn1c(CNC(=O)C23CC4CC(CC(C4)C2)C3)nnc1SCC(=O)Nc1ccc(F)cc1	inactive: 38.7%
Cc1cccc(NC(=O)Nc2nnc(N3CCCC3)s2)c1	inactive: -5.53%
Cc1cccc(Cn2c(=O)n(Cc3ccccc3)c(=O)c3sc4ccccc4c32)c1	inactive: -8.35%
Cc1ccc(NC(=O)C2CCCN2S(=O)(=O)c2ccc3nc(-c4ccccc4)[nH]c3c2)cc1C (centres undefined)	inactive: -3.25%
Cc1cc(C(=O)NCc2ccccc2)c2c(C)nn(-c3cccc(Cl)c3C)c2n1	inactive: -7.52%
CCOC(=O)c1[nH]c(C)c(CCC(=O)Nc2cc(Cl)c(OC)cc2OC)c1C	inactive: -24.7%
Cc1ccc(CCNC(=O)c2ccc3c(c2)N(Cc2ccc(F)cc2)CCS3)cc1	inactive: -16.5%
CCC(C)NC(=O)c1cn(CC)c2ccc(S(=O)(=O)N3CCc4ccccc4C3)cc2c1=O (centres undefined)	inactive: 3.75%
O=C(NCc1ccccc1Cl)c1ccc2c(c1)N(Cc1ccccc1)CCS2	inactive: -23.1%
O=C(CSc1nc2ccccc2n1Cc1cccc(F)c1)N1CCN(c2ccc(F)cc2)CC1	inactive: -5.27%
O=C(NC1CCCCCC1)c1ccc(CS(=O)c2cccc(Cl)c2)o1 (centres undefined)	inactive: -17%
Cc1cc(C)c(NC(=O)Cn2c(=O)n(CC(=O)NCCc3ccccc3)c(=O)c3ccccc32)c(C)c1	inactive: -0.139%
Cc1nc(-c2ccc(C)c(S(=O)(=O)N3CCC(C(=O)NCc4ccc(F)cc4)CC3)c2)no1	inactive: -0.296%
CCCCc1ncc(/C=C(\Cc2cccs2)C(=O)O)n1Cc1ccc(C(=O)O)cc1	inactive: -41.7%
Cc1cccc(-n2nnc(-c3nc(-c4cccs4)no3)c2N)c1	inactive: 4.79%
Cc1ccc(C)c(CNC(=O)CN2C(=O)CSc3ccc(S(=O)(=O)N(C)C)cc32)c1	inactive: 2.49%
Cc1cc(N2CCC(C)CC2)nc2ccc(NC(=O)CCC(=O)N3CCN(c4ccccc4F)CC3)cc12	inactive: -27.9%
O=S(=O)(c1ccc2nc(Nc3ccc(F)cc3)ccc2c1)N1CCCC1	inactive: -19%
CCc1ccc(NC(=O)Cn2c(=O)n(CCc3ccccc3)c(=O)c3sc4ccccc4c32)cc1	inactive: -3.81%
N[C@@H](Cc1ccc(O)c(O)c1)C(=O)O	inactive: 2.13%
CC(=O)c1cccc(N2C(=O)CN(S(C)(=O)=O)CC2(C)C(=O)NC2CCCC2)c1 (centres undefined)	inactive: 2.93%
